# The supplement of paper PMC9135407
# Where “and” joins values, the source holds several entries; their conditions need not be identical. Equal values may be shown once. Where a name gives a salt, the structure may show the parent alone. Out of some 5,800 compounds screened, about 620 (11%) showed activity.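 How the source made its calls: active = score above a cut-off or among the top three wells of a plate; in these data no inactive exceeds 0.85.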 The entries are a selection whose mix differs from that of the whole data set.
# System: primary human hepatic stellate cells (donor 1)
# Assay: scaled lipid accumulation score (0 = DMSO-like, 1 = nortriptyline-like); higher = stronger HSC inactivation (lipid re-accumulation), active = hit call of the paper
# Details: 48 h
# [1] = library stock concentration: 10 mM
# [2] = library stock concentration: 3.33 mM
# [3] = library stock concentration: 1 mM
# [4] = library stock concentration: 400 uM
# [5] = library stock concentration: 2 mM
smiles,measurement,setting,value
O=C(O)C[C@H](O)C[C@H](O)/C=C/c1c(C2CC2)nc2ccccc2c1-c1ccc(F)cc1,scaled lipid accumulation score,[1],inactive: ≤ 0 and inactive: 0.802
O=C(O)C[C@H](O)C[C@H](O)/C=C/c1c(C2CC2)nc2ccccc2c1-c1ccc(F)cc1 [Pitavastatin Calcium],scaled lipid accumulation score,[2],inactive: 0.373
same,scaled lipid accumulation score,[1],inactive: 0.131
CCC(CC)CNc1cc(C(=O)NCCN(C)C)cc(S(=O)(=O)Nc2ccc(OC)cc2)c1,scaled lipid accumulation score,[1],active: 0.996
CC(C)(C)c1cc(NC(=O)Nc2ccc(-c3cn4c(n3)sc3cc(OCCN5CCOCC5)ccc34)cc2)no1 [Quizartinib (AC220)],scaled lipid accumulation score,[1],active: 1.15
CC(C)[C@H](NS(=O)(=O)c1ccc(-c2ccc(Br)cc2)cc1)C(=O)O,scaled lipid accumulation score,[1],inactive: ≤ -0.001
C[C@H](NC(=O)CCc1nc2ccccc2c(=O)[nH]1)c1ccccc1,scaled lipid accumulation score,[2],inactive: ≤ -0.009
same,scaled lipid accumulation score,[1],inactive: ≤ 0
NCC(=O)CCC(=O)O [Aminolevulinic acid hydrochloride],scaled lipid accumulation score,[1],inactive: ≤ -0.027
NCC(=O)CCC(=O)O [5-Aminolevulinic acid HCl],scaled lipid accumulation score,[2],inactive: ≤ 0
same,scaled lipid accumulation score,[1],inactive: ≤ 0
NCC(=O)CCC(=O)O [Aminolevulinic Acid],scaled lipid accumulation score,[1],inactive: ≤ 0
NC(=O)c1ccc[n+]([C@@H]2O[C@H](COP(=O)([O-])OP(=O)(O)OC[C@H]3O[C@@H](n4cnc5c(N)ncnc54)[C@H](O)[C@@H]3O)[C@@H](O)[C@H]2O)c1 [Nadide],scaled lipid accumulation score,,inactive: ≤ 0
same,scaled lipid accumulation score,library stock concentration: 3 mM,inactive: 0.024
COc1ccc(CNc2nc(N(CCO)CCO)nc3c2ncn3C(C)C)cc1 [Cdk2 Inhibitor III],scaled lipid accumulation score,[2],inactive: 0.067
O=C(Nc1ccccc1)N[C@@H]1C[C@@H](C(=O)O)Nc2cc(Cl)cc(Cl)c21,scaled lipid accumulation score,[1],inactive: ≤ 0
COc1ccc(CN(CCN(C)C)c2ncccn2)cc1 [Thonzylamine hydrochloride],scaled lipid accumulation score,library stock concentration: 6.2 mM,inactive: ≤ 0
same,scaled lipid accumulation score,[1],inactive: 0.008
"N=C(N)SCCc1ccc(CCSC(=N)N)cc1 [1,4-PBIT (dihydrobromide)]",scaled lipid accumulation score,[3],inactive: 0.049
CC[C@@H](C)Nc1cc(C(=O)NC2CC3CCC(C2)N3c2ccc(C(=O)C3CC3)cn2)c(C)cc1C(N)=O (stereo not given in full),scaled lipid accumulation score,[1],active: 0.853
Cc1ccc(Sc2ccccc2N2CCNCC2)c(C)c1,scaled lipid accumulation score,[2],inactive: 0.769
same,scaled lipid accumulation score,[1],inactive: 0.102
Cc1cc2c(OCC(CNC(C)(C)C)OC(=O)c3ccccc3)cccc2[nH]1 (stereo not given) [Bopindolol malonate],scaled lipid accumulation score,library stock concentration: 5.3 mM,inactive: ≤ -0.006
O=C(O)c1cc([N+](=O)[O-])ccc1NCCCc1ccccc1 [5-Nitro-2-(3-phenylpropylamino)benzoic acid],scaled lipid accumulation score,[1],inactive: 0.074
CCCCCCCCNC(C)C(O)c1ccc(SC(C)C)cc1 (stereo not given) [Suloctidil],scaled lipid accumulation score,,inactive: 0.747
same,scaled lipid accumulation score,library stock concentration: 5.9 mM,inactive: 0.37
same,scaled lipid accumulation score,[1],inactive: ≤ 0
CC(=O)CC(c1ccc([N+](=O)[O-])cc1)c1c(O)c2ccccc2oc1=O (stereo not given) [Acenocoumarol],scaled lipid accumulation score,,inactive: ≤ 0
C[C@H]1O[C@@H](O[C@H]2[C@@H](O)C[C@H](O[C@H]3[C@@H](O)C[C@H](O[C@H]4CC[C@@]5(C)[C@H](CC[C@@H]6[C@@H]5CC[C@]5(C)[C@@H](C7=CC(=O)OC7)CC[C@]65O)C4)O[C@@H]3C)O[C@@H]2C)C[C@H](O)[C@@H]1O [Digitoxin],scaled lipid accumulation score,[1],inactive: 0.545
S=c1[nH]cnc2nc[nH]c12 [Mercaptopurine],scaled lipid accumulation score,[1],inactive: ≤ 0
same,scaled lipid accumulation score,library stock concentration: 13.1 mM,inactive: ≤ -0.001
S=c1[nH]cnc2nc[nH]c12 [Mercaptopurine (6-MP)],scaled lipid accumulation score,[2],inactive: ≤ 0
same,scaled lipid accumulation score,[1],inactive: ≤ 0
NS(=O)(=O)c1ccc(NC(=O)Nc2ccc(F)cc2)cc1,scaled lipid accumulation score,[2],inactive: 0.042
same,scaled lipid accumulation score,[1],inactive: 0.029
O=C(O)CCC/C=C\C[C@H]1[C@@H](/C=C/[C@@H](O)CCc2ccccc2)[C@H](O)C[C@@H]1O [8-iso-17-phenyl trinor Prostaglandin F2.alpha.],scaled lipid accumulation score,[3],inactive: ≤ 0
Cc1cccc(-c2[nH]ncc2-c2ccc3ncccc3n2)n1,scaled lipid accumulation score,[2],inactive: ≤ -0.004
same,scaled lipid accumulation score,[1],inactive: 0.004 and inactive: 0.433
Cn1cc(C2=C(c3ccc(Cl)cc3Cl)C(=O)NC2=O)c2ccccc21,scaled lipid accumulation score,[1],active: 1.22
CN(Cc1ccc(C(C)(C)C)cc1)Cc1cccc2ccccc12 [Butenafine],scaled lipid accumulation score,library stock concentration: 6.3 mM,inactive: ≤ -0.006
CN(Cc1ccc(C(C)(C)C)cc1)Cc1cccc2ccccc12 [Butenafine HCl],scaled lipid accumulation score,[2],inactive: ≤ 0
same,scaled lipid accumulation score,[1],inactive: 0.062
CN(C)CCOc1cc(-c2cn[nH]c2)ccc1NC(=O)C1COc2ccccc2O1 (stereo not given),scaled lipid accumulation score,[4],inactive: ≤ -0.005
same,scaled lipid accumulation score,[5],inactive: 0.383
NCCCCN [Putrescine dihydrochloride],scaled lipid accumulation score,[1],inactive: ≤ 0
N=C(CC(O)COc1ccccc1-c1ccccc1)N1CCCCC1 (stereo not given),scaled lipid accumulation score,[1],inactive: 0.781
CCCCc1nc2ccn(Cc3cccs3)c(=O)c2n1Cc1ccc(-c2ccccc2-c2nn[nH]n2)cc1,scaled lipid accumulation score,[1],inactive: ≤ -0.006
O=C1OC(=O)[C@H]2[C@@H]1[C@@H]1CC[C@H]2O1 [Norcantharidin],scaled lipid accumulation score,[1],inactive: 0.439
CN(C)CC[C@@H](c1ccc(Br)cc1)c1ccccn1,scaled lipid accumulation score,[1],inactive: ≤ 0
O=P(O)(O)OC1[C@@H](O)[C@H](O)C(O)[C@H](O)[C@@H]1O (stereo partly drawn) [D-myo-Inositol-3-phosphate (sodium salt)],scaled lipid accumulation score,[3],inactive: 0.009
CC(C)NC(=N)NC(=N)Nc1ccc(Cl)cc1 [Chloroguanide hydrochloride],scaled lipid accumulation score,library stock concentration: 6.9 mM,inactive: ≤ 0
CC(C)NC(=N)NC(=N)Nc1ccc(Cl)cc1 [Proguanil hydrochloride],scaled lipid accumulation score,,inactive: 0.232
Cc1nc2c(O)cccc2c(=O)[nH]1,scaled lipid accumulation score,[1],inactive: ≤ -0.006
O=C(NNc1ccccc1)c1ccncc1,scaled lipid accumulation score,[2],inactive: ≤ -0.009
same,scaled lipid accumulation score,[1],inactive: ≤ 0
COc1ccc2c3c1O[C@H]1C[C@@H](O)C=C[C@@]31CCN(C)C2 [Galanthamine],scaled lipid accumulation score,[1],inactive: ≤ 0
COc1ccc2c3c1O[C@H]1C[C@@H](O)C=C[C@@]31CCN(C)C2 [Galanthamine HBr],scaled lipid accumulation score,library stock concentration: 7 mM,inactive: ≤ -0.006
COc1ccc2c3c1O[C@H]1C[C@@H](O)C=C[C@@]31CCN(C)C2 [Galanthamine hydrobromide],scaled lipid accumulation score,,inactive: 0.047
same,scaled lipid accumulation score,library stock concentration: 5.4 mM,inactive: ≤ 0
same,scaled lipid accumulation score,[1],inactive: ≤ 0
Cc1cc(F)c(Nc2ncnc3cc(OCc4ccccc4)ccc23)cc1O,scaled lipid accumulation score,[2],inactive: ≤ 0
same,scaled lipid accumulation score,[1],inactive: 0.288 and inactive: 0.141
CCCC(=O)O[C@]1(C(=O)CO)CC[C@H]2[C@@H]3CCC4=CC(=O)CC[C@]4(C)[C@H]3[C@@H](O)C[C@@]21C [Hydrocortisone butyrate],scaled lipid accumulation score,[1],inactive: 0.236
CC1(C)S[C@@H]2[C@H](NC(=O)COc3ccccc3)C(=O)N2[C@H]1C(=O)O [Penicillin V],scaled lipid accumulation score,[1],inactive: ≤ 0
CC1(C)S[C@@H]2[C@H](NC(=O)COc3ccccc3)C(=O)N2[C@H]1C(=O)O [Penicillin v potassium],scaled lipid accumulation score,library stock concentration: 5.1 mM,inactive: 0.003
same,scaled lipid accumulation score,[1],inactive: ≤ 0
Cc1nnc(SCC2=C(C(=O)O)N3C(=O)[C@@H](NC(=O)Cn4cnnn4)[C@H]3SC2)s1 [Cefazolin sodium salt],scaled lipid accumulation score,,inactive: ≤ 0
Cc1nnc(SCC2=C(C(=O)O)N3C(=O)[C@@H](NC(=O)Cn4cnnn4)[C@H]3SC2)s1 [Cefazolin?Sodium],scaled lipid accumulation score,[1],inactive: ≤ 0
Cc1nnc(SCC2=C(C(=O)O)N3C(=O)[C@@H](NC(=O)Cn4cnnn4)[C@H]3SC2)s1 [Cefazolin sodium],scaled lipid accumulation score,[1],inactive: ≤ 0
Cn1cncc1[C@@](N)(c1ccc(Cl)cc1)c1ccc2c(c1)c(-c1cccc(Cl)c1)cc(=O)n2C [Tipifarnib],scaled lipid accumulation score,[2],inactive: ≤ 0
same,scaled lipid accumulation score,[1],inactive: 0.104
C=CC(=O)Nc1cc(-n2c(=O)ccc3cnc4ccc(-c5cn[nH]c5)cc4c32)ccc1C,scaled lipid accumulation score,library stock concentration: 80 uM,inactive: ≤ 0
same,scaled lipid accumulation score,[4],inactive: ≤ 0
same,scaled lipid accumulation score,[5],inactive: 0.082
same,scaled lipid accumulation score,[1],inactive: 0.662
Cc1cc(C#N)cc(C)c1Oc1nc(Nc2ccc(C#N)cc2)nc(N)c1Br [Etravirine (TMC125)],scaled lipid accumulation score,[2],inactive: ≤ 0
same,scaled lipid accumulation score,[1],inactive: 0.454
O=c1[nH]c(=O)n([C@H]2C[C@H](O)[C@@H](CO)O2)cc1C(F)(F)F [Trifluridine],scaled lipid accumulation score,,inactive: ≤ 0
same,scaled lipid accumulation score,[2],inactive: ≤ 0
same,scaled lipid accumulation score,library stock concentration: 6.8 mM,inactive: 0.173
same,scaled lipid accumulation score,[1],inactive: ≤ 0 and inactive: ≤ -0.027
Nc1nc2c(ncn2[C@@H]2O[C@H](CO)[C@@H](O)[C@@H]2O)c(=O)[nH]1 [Ara-G hydrate],scaled lipid accumulation score,[1],inactive: ≤ 0
NC1=NCC2c3ccccc3Cc3ccccc3N12 (stereo not given) [Epinastine HCl],scaled lipid accumulation score,[2],inactive: ≤ 0
same,scaled lipid accumulation score,[1],inactive: 0.038
NC1=NCC2c3ccccc3Cc3ccccc3N12 (stereo not given) [Epinastine hydrochloride],scaled lipid accumulation score,[1],inactive: 0.592
CCCCC[C@H](O)/C=C/[C@H]1OC(O)C[C@H](O)[C@@H]1C/C=C\CCCC(=O)O (stereo not given in full) [Thromboxane B2],scaled lipid accumulation score,[3],inactive: ≤ 0
NC(=O)N1c2ccccc2CC(=O)c2ccccc21 [Trileptal],scaled lipid accumulation score,[1],inactive: ≤ 0
NC(=O)N1c2ccccc2CC(=O)c2ccccc21 [Oxcarbazepine],scaled lipid accumulation score,[2],inactive: ≤ 0
same,scaled lipid accumulation score,library stock concentration: 7.9 mM,inactive: ≤ 0
same,scaled lipid accumulation score,[1],inactive: ≤ 0 and inactive: ≤ -0.027
Cc1nc2ccc(NC(=O)Nc3ccnc4cccnc34)cc2o1,scaled lipid accumulation score,[1],inactive: ≤ -0.006
Oc1nc(-c2ccc(C(F)(F)F)cc2)nc2c1CSCC2,scaled lipid accumulation score,[3],inactive: ≤ 0
same,scaled lipid accumulation score,[2],inactive: ≤ 0
same,scaled lipid accumulation score,[1],inactive: ≤ 0 and inactive: 0.004
O=C(c1ccc(Nc2nccc(-c3cc4ccccc4s3)n2)cc1)N1CCC(N2CCCC2)CC1 [IKK-16 (IKK Inhibitor VII)],scaled lipid accumulation score,[2],active: 1.04
